Results published in US9920069B2, “Compounds for treatment of fluoroquinolone-resistant bacteria” (The Board of Trustees of the University of Illinois, priority 2014, dated 2018).

Test system: S. aureus NRS3 (S84L GyrA and S80F ParC)
Format: cell-based
Details: in words

## CCCc1cc(=O)n(C)c2c3c4c(cc12)c(C)cc(=O)n4CO3 [Compound 7]
  activity against NRS3 (structure-activity statement): generally less well tolerated

## CCCc1cc(=O)n2c3c(c4c(cc13)c(C)cc(=O)n4C)OC2 [Compound 6]
  activity against NRS3 (structure-activity statement): relatively well tolerated
